From PubChem BioAssay AID588453 (National Center for Advancing Translational Sciences (NCATS), 2011)
About 4,000 (1%) of roughly 390,000 compounds were called active. The shares of active, inactive and inconclusive entries below differ from those in the screen. The call rests on the fitted dose curve; in most records, active means well fitted inhibition curve with a large enough effect; inconclusive means small, poorly fitted or top-dose-only effect; inactive means no such curve, though single readings can be large or run the other way. Potencies of inconclusive entries are doubtful fits and often do not repeat.
Further: nearly all actives have a fitted effect of over 65% in size.
On the % scale 0 is the no-effect control and ±100 the full control effect; potency means the concentration at half of the fitted maximal effect; tags describe the fitted curve by direction and shape.

The compounds below were run against Thioredoxin reductase 1, cytoplasmic (Rattus norvegicus) (UniProt O89049) (assay: qHTS Assay for Inhibitors of Mammalian Selenoprotein Thioredoxin Reductase 1 (TrxR1): qHTS). Conditions: recombinant rTrxR1, NADPH fluorescence consumption, selenite substrate; series mostly up to 114 µM; activity change, negative = inhibition: at the top concentration.
Sequence of UniProt O89049 (O89049 whole entry, looked up): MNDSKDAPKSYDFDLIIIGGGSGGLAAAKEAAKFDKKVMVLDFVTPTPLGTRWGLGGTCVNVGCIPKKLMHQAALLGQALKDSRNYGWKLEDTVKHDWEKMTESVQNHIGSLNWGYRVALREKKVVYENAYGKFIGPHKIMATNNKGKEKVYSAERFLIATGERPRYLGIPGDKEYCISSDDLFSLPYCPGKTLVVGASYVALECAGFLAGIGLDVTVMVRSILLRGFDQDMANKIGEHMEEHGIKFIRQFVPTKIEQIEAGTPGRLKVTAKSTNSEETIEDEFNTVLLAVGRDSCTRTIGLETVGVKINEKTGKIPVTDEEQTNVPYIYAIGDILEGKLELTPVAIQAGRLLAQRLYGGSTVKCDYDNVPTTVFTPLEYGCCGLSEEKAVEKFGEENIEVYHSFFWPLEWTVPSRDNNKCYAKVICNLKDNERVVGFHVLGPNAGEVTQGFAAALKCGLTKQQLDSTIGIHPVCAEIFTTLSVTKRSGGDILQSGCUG
Procedure, shortened: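 Rat TrxR1 (90 nM in the dispensed reagent) was pre-reduced with 400 uM NADPH for 5 min at room temperature, then incubated with compound for 15 min. After 400 uM selenite was added, NADPH fluorescence (Ex 340/Em 450 nm) was followed for 8 min.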
For Cc1cc(C)nc(S/C=C/C(=O)c2ccccc2)n1, the Potency was active: 1 µM. For C=CCNc1oc(/C=C/c2ccccc2)nc1C#N, the Potency was inconclusive: 100 µM [inhibitor, single point]. C=C1C(=O)C2=CC1CCC(=O)C1(C)CCC(OC(C)=O)C(C)(C)C1CC2O (stereo not given) was tested, and the Potency was active: 50.1 µM. In the case of CC(=O)Nc1nc(NC(=O)C(Cl)(Cl)Cl)n(-c2ccccc2)n1, the “activity change, negative = inhibition” value is reported as inactive: 2.57% [at 57.1 µM]. CCn1c(=S)[nH]c2scc(-c3cccs3)c2c1=O was tested, and the Potency was inconclusive: 1.12 µM [inhibitor, full curve, poor fit]. In the case of Nc1ccc(C#Cc2ccc3c(=O)c4ccccc4oc3c2)cc1, the “activity change, negative = inhibition” value is reported as inactive: -13%. In the case of O=C(Nc1ncc(Cc2cccc(Cl)c2)s1)C1CCCO1 (stereo not given), the Potency is reported as inconclusive: 89.1 µM [inhibitor, partial curve, poor fit]. For O=C(c1ccco1)N1CCN(c2cc(=O)n(-c3ccc(Cl)cc3)c(=O)[nH]2)CC1, the Potency was inconclusive: 44.7 µM [inhibitor, partial curve]. For Cn1cnnc1SCC(=O)c1cccc([N+](=O)[O-])c1, the Potency was inconclusive: 89.1 µM [inhibitor, single point]. O=C(NC1CCCC1)c1cnn2c1NC(=C1CC1)C=C2C(F)F was tested, and the “activity change, negative = inhibition” value was inactive: 9.03%. For CC(=O)c1cccc(NC(=S)NC(=O)c2ccc(Cl)cc2)c1, the Potency was inconclusive: 11.2 µM [inhibitor, full curve]. With Cn1c(=O)c(=O)n(C)c2cc(N3CCCC3)c(NS(=O)(=O)c3ccc(Cl)cc3)cc21 the Potency was active: 35.5 µM. CCOC(=O)c1cnn(-c2cccc(F)c2)c1C1CCNCC1 was tested, and the Potency was inconclusive: 79.4 µM [inhibitor, partial curve, poor fit]. Cc1cccn2c(Nc3ccc4c(c3)OCCO4)c(-c3ccc(Br)o3)nc12 was tested, and the Potency was inconclusive: 70.8 µM [inhibitor, partial curve]. With Cc1ccc(CNC(=O)c2cc(C3CC3)nc3c2c(C)nn3-c2cccc(Cl)c2C)cc1 the “activity change, negative = inhibition” value was inactive: 35.1%. In the case of CCOc1ccccc1-n1c(CN2CCN(C(=O)c3ccco3)CC2)nc2ccccc2c1=O, the Potency is reported as active: 20 µM. With O=C1CCN(C(=O)Nc2ccccc2Cl)N1 the Potency was inconclusive: 11.2 µM [inhibitor, partial curve, poor fit]. In the case of Cc1cc(=O)[nH]c2cc(N)ccc12, the Potency is reported as inconclusive: 89.1 µM [inhibitor, single point]. In the case of O=C(CN(c1cccc(C(F)(F)F)c1)S(=O)(=O)c1ccc(Cl)c([N+](=O)[O-])c1)NCc1ccc(F)cc1, the Potency is reported as inconclusive: 12.6 µM [inhibitor, partial curve, poor fit]. With CN(C)c1cccc(N=C2C=C(N3CCOCC3)CC(C)(C)C2)c1 the Potency was inconclusive: 12.6 µM [inhibitor, partial curve, poor fit]. With Cc1cccc2cc3c(nc12)SC(=NCC1CCCO1)N(Cc1ccco1)C3 (stereo not given) the Potency was active: 3.55 µM. With CCc1c(C)c2ccc(O)c(CN(C)C)c2oc1=O the Potency was inconclusive: 79.4 µM [inhibitor, single point]. For CCOc1ccc(NC(=O)Cn2cc(C(=O)c3ccc(OCC)cc3)c(=O)c3cc4c(cc32)OCCO4)cc1, the “activity change, negative = inhibition” value was inactive: 4.07%. For COc1ccccc1NC(CC(=O)c1ccccc1)C(=O)OCC(=O)c1ccc(F)cc1 (stereo not given), the Potency was active: 35.5 µM. For COc1ccc(C)cc1NS(=O)(=O)c1ccc(NC(=O)CN(c2cc([N+](=O)[O-])ccc2C)S(C)(=O)=O)cc1, the “activity change, negative = inhibition” value was inactive: -1.76%. For COc1cccc(NC(=O)c2nc(S(C)(=O)=O)ncc2Cl)c1, the Potency was active: 8.91 µM. For O=C(N/N=C/C(Br)=C/c1ccccc1)c1n[nH]c2c1CCC2, the Potency was inconclusive: 15.8 µM [inhibitor, partial curve, poor fit]. For CC(C)CCN1CCN(C/C=C/c2ccco2)CC1CCO (stereo not given), the Potency was inconclusive: 70.8 µM [inhibitor, partial curve]. Cc1ccc(S(=O)(=O)N2CCCc3cc(NC(=O)c4ccc(F)c(F)c4)ccc32)cc1 was tested, and the “activity change, negative = inhibition” value was inactive: 29.4% [at 57.1 µM]. For CNC(=S)N/N=C/c1ccc(-c2ccc(C(=O)O)cc2)o1, the Potency was inconclusive: 56.2 µM [inhibitor, partial curve]. For Cc1ccc(-c2cc(C(=O)N/N=C/c3ccc([N+](=O)[O-])o3)c3ccccc3n2)o1, the Potency was inconclusive: 79.4 µM [inhibitor, partial curve, poor fit]. For CN(C)c1ccc(N=Nc2ccccc2C(=O)O)cc1, the Potency was inconclusive: 50.1 µM [inhibitor, partial curve]. With O=S(=O)(c1ccccc1)N1N=C(c2ccc(O)cc2)CC1c1ccco1 (stereo not given) the Potency was inconclusive: 6.31 µM [inhibitor, full curve, poor fit]. CC(Oc1ccccc1)C(=O)Nc1nnc(S(=O)(=O)N2CCCCCC2)s1 (stereo not given) was tested, and the Potency was inconclusive: 31.6 µM [inhibitor, full curve, poor fit]. With COc1ccc(C(=O)Nc2nnc(S(=O)(=O)N3CCN(c4ccc(C)cc4)CC3)s2)cc1 the “activity change, negative = inhibition” value was inactive: 12.5%. With Cc1cc(S(=O)(=O)n2ccnc2C(C)C)cc([N+](=O)[O-])c1C the activity change, negative = inhibition was inactive: 10.9% [at 11.4 µM]. For CCCNc1ccc(-c2nc(-c3ccco3)no2)cc1[N+](=O)[O-], the Potency was inconclusive: 39.8 µM [inhibitor, partial curve, poor fit]. In the case of CC[n+]1ccnc2ccccc21, the Potency is reported as inconclusive: 10 µM [inhibitor, partial curve, poor fit]. In the case of CC(=O)c1c(C)oc(C)c1CSCc1ccc(C(=O)O)o1, the Potency is reported as inconclusive: 56.2 µM [inhibitor, single point]. For CCCN1CCCc2cc(CN)ccc21, the Potency was inconclusive: 14.1 µM [inhibitor, full curve]. O=[N+]([O-])/C=C/c1ccc2c(ccn2Cc2ccccc2)c1 was tested, and the Potency was inconclusive: 14.1 µM [inhibitor, partial curve]. With Cc1ccc(S(=O)(=O)c2nc(-c3ccco3)oc2N2CCC(C)CC2)cc1 the Potency was inconclusive: 79.4 µM [inhibitor, partial curve, poor fit]. In the case of CCOc1ccc(-c2nc(S(=O)(=O)c3ccccc3)c(N3CCC(C(N)=O)CC3)o2)cc1, the Potency is reported as active: 44.7 µM. O=C(NCc1ccco1)C1CCN(C(=O)c2ccc(Cl)cc2Cl)CC1 was tested, and the Potency was inconclusive: 39.8 µM [inhibitor, partial curve, poor fit]. COc1cccc(CNC(=O)COC(=O)c2nc(Cl)c(Cl)c(Cl)c2Cl)c1 was tested, and the Potency was inconclusive: 56.2 µM [inhibitor, partial curve, poor fit]. For O=C(/C=C/Sc1ncn[nH]1)c1ccc(Cl)cc1, the Potency was active: 0.447 µM. With CN(c1ccccc1)C(CNS(=O)(=O)c1ccccc1)c1ccccc1 (stereo not given) the “activity change, negative = inhibition” value was inactive: 10.1%. With Cc1cccc(-c2nnc(SCCC(=O)N3CCOCC3)o2)c1 the “activity change, negative = inhibition” value was inactive: -5%. For COc1ccc2c(c1)-c1nc(/N=C/c3ccc(O)c(OC)c3)sc1CC2, the Potency was inconclusive: 25.1 µM [inhibitor, partial curve, poor fit]. In the case of O=C1/C(=C\c2ccsc2)NC(=S)N1c1ccccc1, the Potency is reported as inconclusive: 10 µM [inhibitor, partial curve, poor fit]. With Cn1c(=O)c2sccc2n2c(CCC(=O)Nc3ccc(F)cc3)nnc12 the “activity change, negative = inhibition” value was inactive: 23.8%. With Cc1ccc(S(=O)(=O)NNC(=S)NC(=O)c2ccc([N+](=O)[O-])cc2)cc1 the Potency was inconclusive: 12.6 µM [inhibitor, full curve, poor fit]. In the case of Cc1ccc(NS(=O)(=O)c2cccc(C(=O)n3ncc(C#N)c3N)c2)c(C)c1, the “activity change, negative = inhibition” value is reported as inactive: 14% [at 57.1 µM]. In the case of O=C(c1ccco1)N1CCN(S(=O)(=O)c2ccc(Br)s2)CC1, the Potency is reported as active: 10 µM. In the case of Cc1cccc2sc(N(Cc3cccnc3)C(=O)CCS(=O)(=O)c3ccccc3)nc12, the Potency is reported as inconclusive: 14.1 µM [inhibitor, partial curve]. In the case of COc1ccc2c(c1)CCCC(Br)C2=O (stereo not given), the “activity change, negative = inhibition” value is reported as inactive: -82.9% [at 57.1 µM]. With COc1ccc(-c2cc(C(F)(F)F)nc(S(C)(=O)=O)n2)cc1OC the Potency was active: 17.8 µM. With COc1ccc(NC(=O)c2cc(C)no2)cc1 the “activity change, negative = inhibition” value was inactive: 2.88%. With O=C(NC(=S)Nc1ccc(N2CCCCC2)cc1)c1ccc2c(c1)OCCO2 the Potency was inconclusive: 35.5 µM [inhibitor, partial curve]. In the case of Cc1ccc(C(=O)/C=C/c2ccc3ncccc3c2)cc1, the Potency is reported as inconclusive: 35.5 µM [inhibitor, partial curve]. In the case of COc1cccc(N=Nc2c(=O)[nH]n3c(C)cc(C)nc23)c1, the Potency is reported as inconclusive: 35.5 µM [inhibitor, partial curve]. For O=C(Cc1cccs1)N(c1ccc(Cl)cc1)C1C=CS(=O)(=O)C1 (stereo not given), the Potency was inconclusive: 3.55 µM [inhibitor, single point]. In the case of Cc1cc(=O)[nH]c(SCC(=O)NC2CCCc3ccccc32)n1 (stereo not given), the “activity change, negative = inhibition” value is reported as inactive: 46.5%. With COCCn1c(=N)c(C(=O)NCC2CCCO2)cc2c(=O)n3ccccc3nc21 (stereo not given) the Potency was inconclusive: 79.4 µM [inhibitor, single point]. For CCOC(=O)c1c(NC(=S)NC)sc2c1CC(C)(C)SC2, the Potency was active: 11.2 µM. O=c1[nH]/c(=C/c2ccc3c(c2)OCO3)c(=O)[nH]/c1=C/c1ccc2c(c1)OCO2 was tested, and the “activity change, negative = inhibition” value was inactive: 20.3%. For c1ccc2c(c1)Nc1cc3ccccc3cc1S2, the activity change, negative = inhibition was inactive: 15.5% [at 11.4 µM]. With Cc1ccc(NC(=S)NCCc2ccccc2)nc1 the Potency was inconclusive: 79.4 µM [inhibitor, partial curve, poor fit]. For O=C(CSc1nnc(-c2cnccn2)n1Cc1ccco1)c1ccc(Cl)c(Cl)c1, the Potency was inconclusive: 35.5 µM [inhibitor, partial curve]. For CC(=O)c1ccccc1OC(=O)COc1ccc([N+](=O)[O-])cc1, the Potency was inconclusive: 50.1 µM [inhibitor, single point].
